Experimental data taken from PubChem BioAssay AID485294 (National Center for Advancing Translational Sciences (NCATS), 2010).
In all, about 370,000 compounds went through this assay and about 150 (0.041%) were called active. The inconclusive results got no clear call from the source; some entries with a clear call stand among them for comparison. Calls follow the shape of the dose curve; as a rule, active = well fitted inhibition curve with a large enough effect; inconclusive = small, poorly fitted or top-dose-only effect; inactive = flat fitted curve, though single readings scatter. Potencies of inconclusive entries are left out as doubtful fits.

Target: Beta-lactamase (Escherichia coli (strain K12)) (UniProt P00811)
Test: qHTS Inhibitors of AmpC Beta-Lactamase (assay with detergent); also: nearly all actives have a fitted effect of over 25% in size
Settings: AmpC hydrolysis of nitrocefin, absorbance 480 nm, 0.01% Triton; series mostly up to 114 µM
Method in brief: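 AmpC (5.3 nM in the dispensed reagent) in 20 mM phosphate pH 7.0 with 0.01% (detergent screen) or 0.0001% Triton X-100 was preincubated with compounds for 15 min at room temperature. Nitrocefin was then added from an 800 uM solution, and hydrolysis was followed at 480 nm.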
Potency is read from the fitted curve at half-maximal effect; tags tell the direction and shape of the fitted curve.

UniProt P00811, sequence (P00811 whole entry, looked up): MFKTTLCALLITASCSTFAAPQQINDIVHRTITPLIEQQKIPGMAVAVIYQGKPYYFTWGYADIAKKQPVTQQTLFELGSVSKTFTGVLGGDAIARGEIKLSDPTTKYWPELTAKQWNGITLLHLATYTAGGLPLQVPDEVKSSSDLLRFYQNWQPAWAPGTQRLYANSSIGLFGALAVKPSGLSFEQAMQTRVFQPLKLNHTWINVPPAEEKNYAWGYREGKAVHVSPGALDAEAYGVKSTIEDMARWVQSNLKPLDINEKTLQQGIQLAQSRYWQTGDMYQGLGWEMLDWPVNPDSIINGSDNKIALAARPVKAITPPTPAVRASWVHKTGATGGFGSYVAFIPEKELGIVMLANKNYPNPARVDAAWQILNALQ

Q: For `S=C(NCc1ccco1)N1CCN(Cc2ccco2)CC1`, which Potency is on record?
A: The Potency was inconclusive [inhibitor, partial curve, poor fit].

Q: For `O=C(COC(=O)/C=C/c1cccc(C(F)(F)F)c1)NC(=O)NCc1ccccc1`, which Potency is on record?
A: Its Potency is inconclusive [inhibitor, partial curve, poor fit].

Q: How did the Potency turn out when `COCC(C)N=CC1=C(O)CC(C)(C)CC1=O` (configuration not stated) was run?
A: Its Potency is inconclusive [inhibitor, full curve, poor fit].

Q: With `O=C(CCn1c(=O)oc2ccccc21)NCCCN1CCCC1=O` as the molecule, how does the Potency read?
A: The Potency was inconclusive [inhibitor, full curve].

Q: For `CCOc1ccc(S(=O)(=O)N2CCCCC2)cc1NC(=O)Cc1ccsc1`, which Potency is on record?
A: The Potency was inconclusive [inhibitor, full curve, poor fit].

Q: For `CCOC(=O)c1sc(NC(=O)CSc2nnc(C)s2)c(C(=O)OCC)c1C`, which Potency is on record?
A: Its Potency is inconclusive [inhibitor, full curve, poor fit].

Q: Which Potency does the source give for `CCN(CC)CCCNC(=O)c1oc2ccc(S(=O)(=O)N3CC(C)CC(C)C3)cc2c1C` (configuration not stated) here?
A: The Potency was inconclusive [inhibitor, full curve, poor fit].

Q: `O=C(N/N=C/C(c1ccccc1)c1ccccc1)c1ccccc1F` was tested. Which Potency did it give?
A: The Potency was inconclusive [inhibitor, partial curve].

Q: Which Potency does the source give for `Clc1ccc(C2CC(c3ccccc3)Nc3ncnn32)cc1` (configuration not stated) here?
A: Its Potency is inconclusive [inhibitor, full curve, poor fit].

Q: How did the Potency turn out when `Cc1ccc(S(=O)(=O)c2c(COC(=O)c3ccc(Cl)cc3)c(-c3ccccc3)nn2C)cc1` was run?
A: Its Potency is inconclusive [inhibitor, full curve].

Q: `CCOC(=O)NC1(Nc2ccc(C)cc2)Oc2ccccc2O1` was tested. Which Potency did it give?
A: Its Potency is inconclusive [inhibitor, full curve, poor fit].

Q: For `Cc1nc2c(Cl)cc(Cl)cc2[nH]1`, which Potency is on record?
A: Its Potency is inconclusive [inhibitor, single point].

Q: `Cc1oc(-c2ccc(Cl)cc2)nc1CN1CCC(C(=O)NCC2CCCO2)CC1` (configuration not stated) was tested. Which Potency did it give?
A: Its Potency is inconclusive [inhibitor, full curve, poor fit].

Q: `CCCCOC(=O)n1c(SCC(=O)N(CC)CC)nc2ccccc21` was tested. Which Potency did it give?
A: The Potency was “inactive”.

Q: Which Potency does the source give for `Cc1c(Br)c([N+](=O)[O-])nn1CC(=O)NCc1cccs1` here?
A: Its Potency is inconclusive [inhibitor, partial curve, poor fit].

Q: Which Potency does the source give for `O=C(CNCC1CCCO1)N1CCN(S(=O)(=O)c2ccc3ccccc3c2)CC1` (configuration not stated) here?
A: The Potency was inconclusive [inhibitor, full curve, poor fit].

Q: `CN1OC2C(=O)N(c3ccccc3)C(=O)C2C1c1ccc(F)cc1` (configuration not stated) was tested. Which Potency did it give?
A: Its Potency is “inactive”.

Q: `CCCC(=O)N1c2ccc(-c3csc(N)n3)cc2CC1C` (configuration not stated) was tested. Which Potency did it give?
A: The Potency was inconclusive [inhibitor, full curve].

Q: How did the Potency turn out when `O=C(NCc1cccnc1)/C(=C/c1ccc(-c2cccc(C(F)(F)F)c2)o1)NC(=O)c1ccccc1` was run?
A: The Potency was “inactive”.

Q: For `O=C(Nc1ccccc1C(=O)N/N=C/c1ccccc1)c1ccco1`, which Potency is on record?
A: The Potency was “inactive”.

Q: `CCOC(=O)N1CCN(C(=S)NC(C)(C)C)CC1` was tested. Which Potency did it give?
A: Its Potency is inconclusive [inhibitor, partial curve].

Q: For `O=C(c1cc2cc(F)ccc2[nH]1)N(Cc1cccnc1)CC1CCCN(C2CCCCC2)C1` (configuration not stated), which Potency is on record?
A: Its Potency is “inactive”.

Q: With `N#C/C(=C\c1ccc(OC(F)F)cc1)C(=O)N1CCCCC1` as the molecule, how does the Potency read?
A: Its Potency is “inactive”.

Q: How did the Potency turn out when `COc1cccc(NC(=O)c2ccccc2-c2nc(-c3cccc(C)c3)no2)c1` was run?
A: The Potency was inconclusive [inhibitor, full curve, poor fit].

Q: `CN1C=C/C(=C\c2cc[n+](C)c3ccccc23)c2ccccc21` was tested. Which Potency did it give?
A: Its Potency is inconclusive [inhibitor, single point].

Q: For `CCC(=O)N1N=C(c2ccc(C)o2)CC1c1ccc(N(C)C)cc1` (configuration not stated), which Potency is on record?
A: Its Potency is inconclusive [inhibitor, partial curve].

Q: Which Potency does the source give for `Cc1ccc2sc(NC(=O)c3ccc(N4C(=O)CCC4=O)cc3)nc2c1C` here?
A: The Potency was inconclusive [inhibitor, partial curve].

Q: Which Potency does the source give for `Cc1ccsc1C(=O)OC(C)C(=O)NC1CCCCC1C` (configuration not stated) here?
A: Its Potency is inconclusive [inhibitor, full curve].

Q: With `CCCCP(=O)(CCCC)Cc1ccccc1O` as the molecule, how does the Potency read?
A: The Potency was “inactive”.

Q: For `NS(=O)(=O)c1cc(C(=O)OCC(=O)NC2CCCCCCC2)ccc1Cl`, which Potency is on record?
A: The Potency was inconclusive [inhibitor, partial curve, poor fit].

Q: For `Cc1ccc(/C=C2/NC(=O)N(Cc3ccc(Br)cc3)C2=O)o1`, which Potency is on record?
A: Its Potency is “inactive”.

Q: With `Cc1ccc(C(=O)c2c3ccccc3[n+]([O-])n2CCC(N)=O)cc1` as the molecule, how does the Potency read?
A: The Potency was inconclusive [inhibitor, partial curve, poor fit].

Q: With `Cc1ccc2c(c1)-c1cc(C)nn1C(c1sccc1C)N2` (configuration not stated) as the molecule, how does the Potency read?
A: Its Potency is inconclusive [inhibitor, partial curve, poor fit].

Q: Which Potency does the source give for `COc1ccc(CCn2nnnc2C(CC(C)C)N2CCN(c3ncccn3)CC2)cc1OC` (configuration not stated) here?
A: Its Potency is inconclusive [inhibitor, full curve, poor fit].

Q: `CC(C)Oc1ccc(CNC(=O)CCCN2C(=O)c3cccnc3Oc3ccc(Cl)cc32)cc1` was tested. Which Potency did it give?
A: Its Potency is “inactive”.

Q: With `CO/N=C(/CNC(=O)c1ccc(F)cc1)c1ccc(Cl)cc1` as the molecule, how does the Potency read?
A: The Potency was inconclusive [inhibitor, full curve].

Q: Which Potency does the source give for `Cc1cc(C(=O)N2CCc3ccccc32)c2ccccc2n1` here?
A: The Potency was inconclusive [inhibitor, partial curve].

Q: With `CCOC(=O)C1C(=O)CC(C)(O)C(C(=O)OCC)C1c1cccc(OC)c1` (configuration not stated) as the molecule, how does the Potency read?
A: The Potency was inconclusive [inhibitor, full curve, poor fit].

Q: Which Potency does the source give for `c1ccc(CNc2ncnc3c2oc2ccccc23)nc1` here?
A: The Potency was “inactive”.

Q: How did the Potency turn out when `C/C(=N\NC(=O)c1ccc(CN2CCOCC2)cc1)c1cccc([N+](=O)[O-])c1` was run?
A: Its Potency is “inactive”.

Q: For `COc1cccc(C2c3c(oc4ccccc4c3=O)C(=O)N2CCCN2CCOCC2)c1` (configuration not stated), which Potency is on record?
A: Its Potency is inconclusive [inhibitor, full curve, poor fit].

Q: How did the Potency turn out when `CC(=O)Nc1ccc(NC(=O)c2ccc(COc3ccccc3)cc2)cc1` was run?
A: Its Potency is inconclusive [inhibitor, full curve, poor fit].
